# Paper PMC4336329 (PLoS ONE, 2015)
# Among all 310,000 compounds or so, about 2,200 (0.71%) showed an effect of 50% or more. Effects have a minus sign here. The list shows a part of the results.
# Target: human ether-à-go-go-related gene (hERG) potassium channel (human, UniProt Q12809)
# Assay: primary screen, population patch clamp on CHO cells stably expressing hERG
# human ether-à-go-go-related gene (hERG) potassium channel, sequence (Q12809 whole entry, looked up): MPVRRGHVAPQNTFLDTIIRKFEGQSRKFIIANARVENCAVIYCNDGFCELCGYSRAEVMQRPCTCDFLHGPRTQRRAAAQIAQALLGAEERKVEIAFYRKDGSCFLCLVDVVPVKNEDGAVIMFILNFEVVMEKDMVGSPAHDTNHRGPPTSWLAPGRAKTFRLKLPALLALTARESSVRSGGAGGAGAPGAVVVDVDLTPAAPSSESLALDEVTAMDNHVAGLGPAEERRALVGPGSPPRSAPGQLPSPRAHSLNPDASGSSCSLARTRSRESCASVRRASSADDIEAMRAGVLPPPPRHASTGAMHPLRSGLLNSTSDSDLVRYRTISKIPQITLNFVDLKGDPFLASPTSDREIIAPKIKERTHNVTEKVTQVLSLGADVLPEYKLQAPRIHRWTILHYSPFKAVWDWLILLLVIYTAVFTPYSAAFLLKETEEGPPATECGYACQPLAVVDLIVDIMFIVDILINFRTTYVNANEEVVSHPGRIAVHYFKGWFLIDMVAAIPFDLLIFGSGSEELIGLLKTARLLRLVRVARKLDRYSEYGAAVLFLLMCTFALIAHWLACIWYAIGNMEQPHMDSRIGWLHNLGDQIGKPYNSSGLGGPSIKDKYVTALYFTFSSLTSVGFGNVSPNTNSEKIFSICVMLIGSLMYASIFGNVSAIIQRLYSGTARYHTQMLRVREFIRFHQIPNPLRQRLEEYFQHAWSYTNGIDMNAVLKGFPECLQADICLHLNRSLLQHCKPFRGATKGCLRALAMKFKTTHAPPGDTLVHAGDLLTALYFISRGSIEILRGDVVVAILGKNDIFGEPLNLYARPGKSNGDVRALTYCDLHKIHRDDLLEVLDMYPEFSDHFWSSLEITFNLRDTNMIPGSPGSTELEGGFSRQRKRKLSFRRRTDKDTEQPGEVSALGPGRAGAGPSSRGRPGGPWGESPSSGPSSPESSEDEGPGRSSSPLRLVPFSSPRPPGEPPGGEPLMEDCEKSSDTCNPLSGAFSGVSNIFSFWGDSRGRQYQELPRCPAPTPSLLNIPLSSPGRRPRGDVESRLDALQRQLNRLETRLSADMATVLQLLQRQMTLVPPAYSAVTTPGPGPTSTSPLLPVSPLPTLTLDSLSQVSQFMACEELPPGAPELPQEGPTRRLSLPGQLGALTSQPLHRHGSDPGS
row,Structure (SMILES),"hERG current change (%, negative = inhibition) at 1uM"
1,Cc1ccc(N2C(=O)CSC2c2c(F)cccc2Cl)cc1 (stereo not shown),12.2%
2,CCN(C(=O)CN1C(=O)COc2ccc(S(=O)(=O)N3CCOCC3)cc21)c1ccc(OC)cc1,11.1%
3,O=C1NN(c2ccccc2)C(=O)/C1=C/c1ccc(Sc2cccc3ccccc23)o1,12.6%
4,CCc1ccc(S(=O)(=O)/N=C2\C=C(Nc3ccc(C(=O)O)cc3)C(=O)c3ccccc32)cc1,10.6%
5,O=[N+]([O-])c1ccc(-c2csc(N3CCc4ccccc4C3)n2)cc1,-0.46%
6,O=S(=O)(c1ccc(Cl)s1)N1CCN(CCc2ccccc2)CC1,0.956%
7,CC(C)NC(=O)CN(Cc1ccc(F)cc1)C(=O)CCC(=O)Nc1ccccn1,12%
8,CCOC(=O)Cc1csc(NC(=O)c2cc3ccccc3o2)n1,2.01%
9,O=C(COC(=O)/C=C/c1ccccc1)NCCNC(=O)COC(=O)/C=C/c1ccccc1,9.44%
10,NC(=O)CSc1nnc(-c2ccc(S(=O)(=O)N3CCCC3)cc2)n1CC1CCCO1 (stereo not shown),-5.87%
11,Nc1ncnc2c1ncn2[C@@H]1O[C@H](CO)C[C@H]1O,16%
12,Cc1ccc(NS(=O)(=O)c2ccc(CCC(=O)O)cc2)cc1,5.05%
13,COCc1nnc(NC(=O)C2CC(=O)N(C3CCCCC3)C2)s1 (stereo not shown),6.49%
14,COCC1CCCCN1C(=O)c1ccc2oc(CCCc3ccccc3)nc2c1 (stereo not shown),3.91%
15,COc1cc([N+](=O)[O-])ccc1NC(=O)c1cccc(NC(=O)C(C)C)c1,14.6%
16,S=C(Nc1ccc(Cl)cc1)Nc1ccc2c(c1)OCCO2,9.87%
17,C/C(=N\NC(=O)c1csc2ccccc12)c1ccc(O)cc1,7.42%
18,COc1ccc(F)cc1COc1nc(C)nc2ccccc12,2.38%
19,O=C(Cn1cncc1-c1ccc([N+](=O)[O-])cc1)Nc1ccccc1F,-0.387%
20,Cc1cc([N+](=O)[O-])nn1CC(=O)Nc1sc2c(c1C(N)=O)CCCC2,2.6%
21,Clc1ccccc1C1SCC2Nc3ccccc3CN21 (stereo not shown),9.81%
22,Cc1ccc(CNC(=O)Cn2cc(C(F)(F)F)ccc2=O)cc1,15.8%

row,Structure (SMILES),"hERG current change (%, negative = inhibition) at 1uM"
1,CCCCCCCC(=O)OCC(=O)[C@@]1(O)CC[C@H]2[C@@H]3CCC4=CC(=O)CC[C@]4(C)[C@H]3[C@@H](O)C[C@@]21C,12.2%
2,Oc1cc(-n2cccn2)c(O)cc1-n1cccn1,14%
3,COc1ccccc1/C=N/NC1=NCCCCC1.Cl,5.68%
4,C/C(=N/NC(=O)c1ccc(C(C)(C)C)cc1)c1ccccn1,4.4%
5,O=C(Cc1cccc2ccccc12)Nc1ccc(N2CCOCC2)cc1,6.24%
6,Cl.OC(CCN1CCCCC1)(c1ccccc1)C1CCCCC1 (stereo not shown),-0.0042%
7,CCOC(=O)c1sc2c(c1C)c(=O)n(Cc1ccccc1)c(=O)n2CCN(C)C,-21.7%
8,CCOC(=O)c1c(N)sc(C(=O)OC)c1C,13.9%
9,COc1ccc(-c2csc(Nc3ccc(S(=O)(=O)Nc4cc(C)on4)cc3)n2)cc1C,6.61%
10,CCOc1ccc(OCCC(=O)OCC(=O)Nc2ccc(C)c(S(=O)(=O)N3CCCCC3)c2)cc1,-0.84%
11,O=C(Nc1nncs1)c1cccc(S(=O)(=O)N2CCCCC2)c1,-13.9%
12,COc1ccc(NC(=O)COC(=O)c2ccncc2)c(OC)c1,-0.39%
13,COC(CSc1nc(N)c2c3c(sc2n1)CN(C)CC3)OC,17.2%
14,Cc1ccc(CNC(=O)C23CN(Cc4ccccc4)CC2C(c2cccc([N+](=O)[O-])c2)=NO3)cc1 (stereo not shown),11.6%
15,CN(N)c1nc(-c2ccccc2)nnc1C(F)(F)F,9.07%
16,CCC1(c2ccc(F)cc2)NC(=O)N(CC(=O)Nc2ccc(N3CCCCC3)cc2)C1=O (stereo not shown),7.99%
17,Cc1nn(C(C)C(=O)NNC(=S)Nc2ccc(F)cc2)c(C)c1[N+](=O)[O-] (stereo not shown),9.44%
18,Cc1nn(Cc2ccccc2)c(C)c1C(=O)OCC(=O)NC1CCS(=O)(=O)C1 (stereo not shown),0.565%
19,Cc1ccc(C(c2sc3nc(C)nn3c2O)N2CCN(c3ccccc3F)CC2)cc1 (stereo not shown),-11.7%
20,O=C(c1ccco1)N1CCN(C(=O)C(Cc2ccccc2)NS(=O)(=O)c2cccs2)CC1 (stereo not shown),-13.4%
21,O=C(Nc1ccccc1F)c1ccc(Cn2cc(Br)cn2)cc1,0.738%
